Results: PMC6919601, “Identification of Plasmodium dipeptidyl aminopeptidase allosteric inhibitors by high throughput screening” (PLoS ONE, 2019)
Among all 110,000 compounds or so, about 230 (0.21%) showed an effect of 50% or more. The list shows a part of the results.

molecular target: DPAP1 (Plasmodium falciparum, UniProt Q8IIJ9); test: primary screen, percent inhibition; read by cleavage of a fluorogenic dipeptide substrate; higher = more effect of the substance; design: species or system P. falciparum D10 trophozoite lysates; single well
Sequence (Q8IIJ9 whole entry, looked up): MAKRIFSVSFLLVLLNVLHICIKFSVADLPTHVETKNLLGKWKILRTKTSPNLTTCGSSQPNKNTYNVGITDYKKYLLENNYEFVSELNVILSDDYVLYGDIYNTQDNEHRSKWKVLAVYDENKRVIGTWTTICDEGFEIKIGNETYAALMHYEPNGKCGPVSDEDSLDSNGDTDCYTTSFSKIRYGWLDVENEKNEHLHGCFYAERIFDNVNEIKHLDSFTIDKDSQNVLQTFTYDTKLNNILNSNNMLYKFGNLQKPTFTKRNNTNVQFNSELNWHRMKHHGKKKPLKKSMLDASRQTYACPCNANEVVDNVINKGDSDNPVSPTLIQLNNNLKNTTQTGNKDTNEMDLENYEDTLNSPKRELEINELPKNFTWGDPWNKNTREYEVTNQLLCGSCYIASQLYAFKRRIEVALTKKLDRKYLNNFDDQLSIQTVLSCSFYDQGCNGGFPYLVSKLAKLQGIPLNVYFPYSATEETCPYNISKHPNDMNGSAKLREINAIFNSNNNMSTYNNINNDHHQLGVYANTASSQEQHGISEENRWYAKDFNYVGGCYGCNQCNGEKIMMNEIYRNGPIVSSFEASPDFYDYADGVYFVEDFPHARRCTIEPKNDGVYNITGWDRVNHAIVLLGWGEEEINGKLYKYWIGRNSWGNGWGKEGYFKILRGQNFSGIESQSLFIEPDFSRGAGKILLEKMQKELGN
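Further: 30 min substrate incubation versus DMSO and 10 µM JCP410 controls.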

**Q.** For `COCc1ccc2c(c1)c1c3n2CCN(Cc2ccccc2)C3CCC1` (stereo not drawn), which “% Inhibition @ 10 uM” value is on record?
**A.** Its value is 2.98%.

**Q.** Which “% Inhibition @ 10 uM” value does the source give for `CCSc1cnn(C)c(=O)c1SCC` here?
**A.** The value was 3.95%.

**Q.** With `O=C(NCCc1ccc(Cl)cc1)C1CCN(S(=O)(=O)N2CCC3(CC2)OCCO3)CC1` as the compound, how does the “% Inhibition @ 10 uM” value read?
**A.** The value was 0.514%.

**Q.** Which “% Inhibition @ 10 uM” value does the source give for `CCc1nnc(NC(=O)c2nc(SCc3ccc(C)cc3)ncc2Cl)s1` here?
**A.** The value was 0.758%.

**Q.** How did the “% Inhibition @ 10 uM” value turn out when `O=c1c(Sc2ccccc2)c(O)c2ccccc2n1-c1ccccc1` was run?
**A.** The value was 2.37%.

**Q.** Which “% Inhibition @ 10 uM” value does the source give for `CCC12CN(C(=O)c3ccc(OC)cc3)CC(CC)(CN(C(=O)c3ccc(OC)cc3)C1)C2=O` here?
**A.** Its value is 0.275%.

**Q.** Which “% Inhibition @ 10 uM” value does the source give for `Cc1ccc(CSCc2nc3ccccc3[nH]2)cc1` here?
**A.** The value was 1.64%.

**Q.** How did the “% Inhibition @ 10 uM” value turn out when `Cc1cc(-c2ccc(C)c(S(=O)(=O)NC(C)Cc3ccco3)c2)on1` (stereo not drawn) was run?
**A.** The value was -3.61%.

**Q.** How did the “% Inhibition @ 10 uM” value turn out when `O=C(O)c1ccc(C(=O)c2ccc(C(=O)O)c(C(=O)O)c2)cc1` was run?
**A.** Its value is -6.71%.

**Q.** How did the “% Inhibition @ 10 uM” value turn out when `COCCNc1nc2c(C)cccn2c(=O)c1/C=C1\SC(=S)NC1=O` was run?
**A.** The value was 1.52%.

**Q.** How did the “% Inhibition @ 10 uM” value turn out when `CCOC(=O)c1c(C)[nH]c(C)c1S(=O)(=O)NCC(=O)Nc1nc2ccc(OC)cc2s1` was run?
**A.** Its value is -4.95%.

**Q.** With `CCN1CCN(C(=O)Cn2ncc3c(=O)oc4ccc(C)cc4c32)CC1` as the compound, how does the “% Inhibition @ 10 uM” value read?
**A.** The value was 4.74%.

**Q.** With `CC(C)(C)c1nc(CN2CCOCC2)cc(CN2CCOCC2)c1O` as the compound, how does the “% Inhibition @ 10 uM” value read?
**A.** The value was 0.716%.

**Q.** With `O=c1nc(-c2ccc(Cl)cc2)oc2ccccc12` as the compound, how does the “% Inhibition @ 10 uM” value read?
**A.** Its value is 4.26%.

**Q.** With `CN1C(=O)C(=Cc2ccc(OCc3ccccc3)cc2)C(=O)N(C)C1=O` as the compound, how does the “% Inhibition @ 10 uM” value read?
**A.** The value was 17%.

**Q.** With `CCN(Cc1ccccc1)S(=O)(=O)c1ccc(F)cc1` as the compound, how does the “% Inhibition @ 10 uM” value read?
**A.** Its value is 3.33%.

**Q.** Which “% Inhibition @ 10 uM” value does the source give for `CC1=C(C(=O)OC2CCCC2)C(c2ccccc2)C2=C(O)CC(C)(C)CC2=N1` (stereo not drawn) here?
**A.** The value was -3.6%.

**Q.** With `COc1ccc(CCNC(=O)Nc2cn(CC(C)C)c(=O)c3ccccc23)c(OC)c1` as the compound, how does the “% Inhibition @ 10 uM” value read?
**A.** Its value is 0.358%.

**Q.** `O=C(NC1(C(F)(F)F)C(=O)Nc2c1c(=O)[nH]c(=O)n2CCc1ccccc1)c1cccnc1` (stereo not drawn) was tested. Which “% Inhibition @ 10 uM” value did it give?
**A.** Its value is 0.413%.

**Q.** For `COc1ccc(C2(C(=O)N3CCCC3)CCCC2)cc1OC`, which “% Inhibition @ 10 uM” value is on record?
**A.** The value was 1.93%.

**Q.** With `CCC1CCC(C(=O)NC(CCSC)C(=O)NCCc2ccc(S(N)(=O)=O)cc2)CC1` (stereo not drawn) as the compound, how does the “% Inhibition @ 10 uM” value read?
**A.** Its value is 1.23%.

**Q.** With `CCOc1ccc(N(C(C)=O)C2SC(=O)N(c3cccc(C)c3)C2=O)cc1` (stereo not drawn) as the compound, how does the “% Inhibition @ 10 uM” value read?
**A.** Its value is 3.25%.

**Q.** `O=C(COc1ccc(Cl)cc1Cl)Nc1noc2ccccc12` was tested. Which “% Inhibition @ 10 uM” value did it give?
**A.** The value was -1.11%.

**Q.** Which “% Inhibition @ 10 uM” value does the source give for `CSc1nc2c(c(-c3ccc(Cl)cc3)c1C#N)C(=O)CC(C)(C)C2` here?
**A.** The value was -1.98%.

**Q.** `CCN(CC)C(=O)Cn1c(=O)n(CCC(=O)NCCc2ccc(Cl)cc2)c(=O)c2sccc21` was tested. Which “% Inhibition @ 10 uM” value did it give?
**A.** The value was -1.21%.

**Q.** `COC(=O)c1cc(S(=O)(=O)N(C)Cc2cnn(-c3ccccc3)c2)c[nH]1` was tested. Which “% Inhibition @ 10 uM” value did it give?
**A.** The value was -1.55%.

**Q.** How did the “% Inhibition @ 10 uM” value turn out when `COc1cc(C(=O)N(Cc2ccccc2F)C2CCS(=O)(=O)C2)cc(OC)c1OC` (stereo not drawn) was run?
**A.** The value was -1.35%.

**Q.** Which “% Inhibition @ 10 uM” value does the source give for `COc1ccc(CCNCc2cc(OC)c3c(c2)OCO3)cc1OC` here?
**A.** The value was 2.22%.

**Q.** How did the “% Inhibition @ 10 uM” value turn out when `O=C(CS(=O)(=O)c1ccc(C(F)(F)F)cc1Cl)Nc1ccc(F)cc1` was run?
**A.** The value was -1.28%.

**Q.** `O=C(O)c1ccc2[nH]c(CCc3ccccc3)nc2c1` was tested. Which “% Inhibition @ 10 uM” value did it give?
**A.** The value was -6.94%.

**Q.** `Cc1cccc(N2CCN(c3ccc(NC(=O)CCC(=O)O)cc3)CC2)c1` was tested. Which “% Inhibition @ 10 uM” value did it give?
**A.** Its value is 3.49%.

**Q.** How did the “% Inhibition @ 10 uM” value turn out when `Cn1c(SCC(=O)O)c(C=O)c2ccccc21` was run?
**A.** The value was 10.3%.

**Q.** Which “% Inhibition @ 10 uM” value does the source give for `COc1ccc(-n2c(S)nnc2Cn2ncc3ccccc3c2=O)cc1` here?
**A.** The value was 13.5%.

**Q.** For `CCCCn1c(CN2CCCCC2CC)nc2c1c(=O)n(C)c(=O)n2C` (stereo not drawn), which “% Inhibition @ 10 uM” value is on record?
**A.** Its value is -4.14%.

**Q.** With `Cc1ccc(C(=O)Nc2nnc(S(=O)(=O)N(C)Cc3ccccc3)s2)cc1` as the compound, how does the “% Inhibition @ 10 uM” value read?
**A.** The value was 1.68%.

**Q.** `COc1ccc(/C=C/C(=O)NC(=S)N2CCOCC2)cc1` was tested. Which “% Inhibition @ 10 uM” value did it give?
**A.** Its value is -4.18%.

**Q.** For `COCc1cc(C)nc2sc3c(c12)NC1(CCCCC1)NC3=O`, which “% Inhibition @ 10 uM” value is on record?
**A.** The value was 2.34%.

**Q.** Which “% Inhibition @ 10 uM” value does the source give for `COc1ccc(-n2c(CN3CCc4ccccc4C3)nc3ccccc3c2=O)cc1` here?
**A.** Its value is 0.245%.

**Q.** How did the “% Inhibition @ 10 uM” value turn out when `COc1ccc2c(Cl)c(C(=O)Nc3ccc(S(N)(=O)=O)cc3)sc2c1` was run?
**A.** Its value is -0.99%.

**Q.** Which “% Inhibition @ 10 uM” value does the source give for `Cc1ccc(Cn2c(C)c3cnn(CC(=O)NCCN4CCCCCC4)c(=O)c3c2C)cc1` here?
**A.** The value was 4.4%.

**Q.** Which “% Inhibition @ 10 uM” value does the source give for `COc1cc(C2C3=C(O)CCCC3=NC3=C2C(=O)CCC3)ccc1OCc1ccc(C(=O)O)cc1` (stereo not drawn) here?
**A.** The value was -4.67%.

**Q.** How did the “% Inhibition @ 10 uM” value turn out when `COc1ccc(N(CC(=O)N2CCCCC2)S(=O)(=O)c2ccc(C)cc2)c(OC)c1` was run?
**A.** Its value is 0.0265%.

**Q.** With `COc1ccc(Br)cc1C1=N/C(=C\c2c(F)cccc2Cl)C(=O)O1` as the compound, how does the “% Inhibition @ 10 uM” value read?
**A.** The value was -4.92%.

**Q.** Which “% Inhibition @ 10 uM” value does the source give for `CCOc1ccccc1CNc1ncnc2onc(-c3ccc(Cl)cc3)c12` here?
**A.** Its value is -0.495%.

**Q.** Which “% Inhibition @ 10 uM” value does the source give for `CCOC(=O)c1c(N)n(-c2ccccc2O)c2nc3ccccc3nc12` here?
**A.** The value was -4.01%.

**Q.** How did the “% Inhibition @ 10 uM” value turn out when `O=C(O)/C=C1\OC(=O)c2ccccc21` was run?
**A.** The value was 1.63%.

**Q.** For `N=C1/C(=C/c2ccc(Br)o2)C(=O)N=C2SC=C(c3ccccc3)N12`, which “% Inhibition @ 10 uM” value is on record?
**A.** The value was -0.85%.

**Q.** How did the “% Inhibition @ 10 uM” value turn out when `Clc1ccc(N2CC(c3ccc(Cl)cc3Cl)C(c3cccs3)=N2)cc1` (stereo not drawn) was run?
**A.** Its value is -4.91%.
